Where a name gives a salt, the structure may show the parent alone. The full ranking holds about 2,800 compounds; the median of “cell viability relative to vehicle” is about 0.98, and the lowest 2% start at about 0.45. The list shows a part of the results.
tested on: NCI-H2228 alectinib-DTP; assay: cell viability relative to vehicle (fraction of vehicle); NCI-H2228 is an ALK-positive lung cancer line and DTP means drug-tolerant persister; higher = less growth inhibition; settings: 100 nM; treatment time 6 days
Method in brief: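 NCI-H2228 parental cells and drug-tolerant persister cells were plated in 384-well plates; the persisters had been generated with 1000 nM of a targeted drug over 13 days. One day later, the 3114-agent TargetMol anti-cancer compound library was added at 100 nM, with DMSO serving as vehicle. ATP was measured 6 days after that using the CellTiter-Glo 3D Cell Viability Assay. Values are cell viability expressed relative to vehicle-treated cells.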

SMILES	cell viability
COc1ccc(Cn2ccc3ccc(C(=O)NO)cc32)cc1	0.969
C#Cc1cccc(Nc2ncnc3cc(OCCOC)c(OCCOC)cc23)c1 [Erlotinib]	1.1
CC(C)[N+](C)(CCOC(=O)C1c2ccccc2Oc2ccccc21)C(C)C [Propantheline bromide]	1.23
CN1CCC[C@@H]1Cc1c[nH]c2ccc(CCS(=O)(=O)c3ccccc3)cc12 [Eletriptan HBr]	1.07
N[C@@H](CO)C(=O)O [serine]	1.06
CCCCCCCCCCCCCC(=O)[O-].CCCCCCCCCCCCCC(=O)[O-].N[C@@H]1CCCC[C@H]1N.[Pt+2] [Miriplatin]	1.08
CN(C)CCC=C1c2ccccc2COc2ccccc21 [Doxepin hydrochloride]	0.975
O=C(O)Cc1c[nH]c2ccc(O)cc12	0.972
COCCNc1cc(NC(=O)N2CCCc3cc(CN4CCN(C)CC4=O)c(C=O)nc32)ncc1C#N [Roblitinib]	1.09
CC1=CC(=O)C(C(C)C)=CC1=O [Thymoquinon]	1
CC(=O)c1ccc2c(c1)c1cc(C(C)=O)ccc1n2CCNC(C)C [CBL0137 hydrochloride]	1.07
C[S+]([O-])c1ccc(-c2nc(-c3ccc(F)cc3)c(-c3ccncc3)[nH]2)cc1 (stereo not drawn)	0.986
O=C(/C=C/c1ccc(O)cc1)CC(=O)/C=C/c1ccc(O)cc1 [Bisdemethoxycurcumin]	1.06
COc1cc2c(Oc3ccc(NC(=O)C4(C(=O)Nc5ccc(F)cc5)CC4)cc3F)ccnc2cc1OCCCN1CCOCC1 [Foretinib]	0.882
Nc1ccccc1S(N)(=O)=O [2-Aminobenzenesulfonamide]	1.05
CC1=NN(c2ccccc2)C(=O)C1 [Edaravone]	1.1
N#C/C(=C\c1cn(-c2ccccc2)c2ccccc12)C(=O)O	0.942
CCN(CC)CCNC(=O)c1cc(Cl)c(N)cc1OC [Metoclopramide hydrochloride]	1.13
CN1CCN(c2cc(-c3ccccc3)nc(N)n2)CC1	1.09
CCCCCNC(=O)N1CCC(CN(Cc2ccc(Cl)cc2)Cc2ccc([N+](=O)[O-])s2)C1 (stereo not drawn)	0.856
Oc1ccc(/C=C/c2cc(O)cc(O)c2)cc1 [Resveratrol]	0.907
Cc1ncc(CCCN(C)C)cc1Nc1ncc2c(n1)-c1ccc(C(F)(F)F)cc1NC(=S)C2	0.677
CCN(CC)CCNC(=O)c1c(C)[nH]c(/C=C2\C(=O)Nc3ccc(F)cc32)c1C [Sunitinib Malate]	0.987
COc1ccc([C@@H]2OC[C@H]3[C@@H]2CO[C@@H]3c2ccc3c(c2)OCO3)cc1OC [Fargesin]	1.11
OCCOCCN1CCN(Cc2cccc(Oc3ccccc3)c2)CC1	1.12
C=C1C(=O)[C@]23[C@H](O)[C@H]1CC[C@H]2[C@@]12CO[C@]3(O)[C@@H](O)[C@@H]1C(C)(C)CC[C@@H]2O [Oridonin]	0.983

SMILES	cell viability
CCOc1cc2ncc(C#N)c(Nc3ccc(F)c(Cl)c3)c2cc1NC(=O)/C=C/CN(C)C [Pelitinib]	0.507
Cc1ncc(NC(=O)c2cccc(C(F)(F)F)c2)cc1-c1cnc(OC2CCOCC2)c(N2CCOCC2)c1	0.969
Cc1cc(/C=C/C#N)cc(C)c1Nc1ccnc(Nc2ccc(C#N)cc2)n1 [Rilpivirine]	0.883
O=S(=O)(NCCSSCCNS(=O)(=O)c1cc(Cl)ccc1Cl)c1cc(Cl)ccc1Cl	0.965
CCOc1ccc(Nc2nc(-c3c(C)nc4ccccn34)cs2)cc1	0.587
Cc1cc(=O)[nH]c(=S)[nH]1 [Methylthiouracil]	1
CC[C@]1(O)C[C@H]2CN(CCc3c([nH]c4ccccc34)[C@@](C(=O)OC)(c3cc4c(cc3OC)N(C=O)[C@H]3[C@@](O)(C(=O)OC)[C@H](OC(C)=O)[C@]5(CC)C=CCN6CC[C@]43[C@@H]65)C2)C1 [Vincristine sulfate]	0.679
NC[C@@H]1O[C@H](O[C@H]2[C@@H](O)[C@H](O[C@@H]3[C@@H](O)[C@H](N)C[C@H](N)[C@H]3O[C@H]3O[C@H](CO)[C@@H](O)[C@H](O)[C@H]3N)O[C@@H]2CO)[C@H](N)[C@@H](O)[C@@H]1O [Paromomycin Sulfate]	1.02
Nc1nc(CC(=O)Nc2ccc(CCNC[C@H](O)c3ccccc3)cc2)cs1 [Mirabegron]	1.2
COCCNCc1ccc(-c2cc3nccc(Oc4ccc(NC(=O)C5(C(=O)Nc6ccc(F)cc6)CC5)cc4F)c3s2)nc1 [Sitravatinib]	0.99
CN1[C@@H]2CC[C@H]1C[C@@H](OC(=O)c1c[nH]c3ccccc13)C2 [Tropisetron hydrochloride]	0.887
CN[C@@H](C)C(=O)N[C@H]1CN(C(=O)CC(C)C)CC[C@H]2CC[C@@H](C(=O)NC(c3ccccc3)c3ccccc3)N2C1=O	1.01
Cn1cnc2[nH]c(=O)[nH]c(=O)c21 [7-Methylxanthine]	1.11
CC(C(=O)O)c1ccc(-c2ccccc2)c(F)c1 (stereo not drawn) [Flurbiprofen]	1.04
Cc1cc(O)c2c(c1)C(=O)c1cccc(O)c1C2=O [Chrysophanic Acid]	1.03
COc1cc2c(N3CCN(C(=O)Nc4ccc(OC(C)C)cc4)CC3)ncnc2cc1OCCCN1CCCCC1 [Tandutinib]	0.986
CC1CNC(=O)NC1=O (stereo not drawn) [Dihydrothymine]	1.12
COc1ccc2c(c1)Nc1ccccc1S2 [2-Methoxyphenothiazine]	1.03
O=C(OCC(O)CO)c1ccccc1Nc1ccnc2cc(Cl)ccc12 (stereo not drawn) [Glafenine]	1.14
O=c1ccc2cc(O)c(O)cc2o1 [Esculetin]	1.01
Cc1c(C)c(NCC(=O)N(C)C2CCN(Cc3ccc(C(N)=O)cc3)CC2)c(C)c(C)c1N	0.837
CN(C)CCN1C(=O)c2cccc3cc(NC(N)=O)cc(c23)C1=O	0.954
O=C(Nc1cccc(C(F)(F)F)c1)Nc1cc(S(=O)(=O)NC2CC2)ccc1-c1ccsc1	0.946
O=C(Nc1cc(Oc2cc(F)c(NC(=O)C3(C(=O)Nc4ccc(F)cc4)CC3)cc2F)ccn1)C1CC1 [Altiratinib]	0.896
O=C1c2c(O)cccc2C([C@@H]2O[C@H](CO)[C@@H](O)[C@H](O)[C@H]2O)c2cc(CO)cc(O)c21 (stereo partly drawn) [Aloin]	0.921
CO/N=C(\C(=O)N[C@@H]1C(=O)N2C(C(=O)O)=C(CSc3nnnn3C)CS[C@H]12)c1csc(N)n1 [Cefmenoxime hydrochloride]	1.08

SMILES	cell viability
CC(NC(=O)C(Cc1ccccc1)NC(=O)OCc1ccccc1)C(=O)CF (stereo not drawn)	0.979
C=CCc1cccc(/C=N/NC(=O)CN2CCN(Cc3ccccc3)CC2)c1O	0.898
COc1ccc(CCC(=O)O)cc1OC [3,4-Dimethoxyhydrocinnamic acid]	0.856
CC(C(=O)O)c1ccc2c(c1)[nH]c1ccc(Cl)cc12 (stereo not drawn) [Carprofen]	0.915
O=C(CN1CCN(C(=O)c2ccco2)CC1)Nc1cc(C(F)(F)F)ccc1Cl	0.974
Nc1nc2[nH]cnc2c(=S)[nH]1 [Thioguanine]	0.829
CC(C)c1cc2c(c(O)c1O)[C@@]13CCCC(C)(C)[C@@H]1C[C@@H]2OC3=O [Carnosol]	1.16
C=CC(=O)Nc1cc(Nc2ncc(C(=O)Nc3cc(NC(=O)c4cc(OC)c(OC)c(OC)c4)ccc3C)c(NC)n2)ccc1C	1.14
N#CC(=C(O)c1ccc(Cl)cc1Cl)c1nc2ccccc2c(=O)[nH]1 [Ciliobrevin A]	0.874
COc1cc2c(=O)c(-c3ccc(O)cc3)coc2cc1O [Glycitein]	1.14
Cn1cc(-c2cc3c(N4CCN(c5ncc([C@@](C)(N)c6ccc(F)cc6)cn5)CC4)ncnn3c2)cn1 [Avapritinib]	0.938
CN(C)CC(=O)Nc1ccc2[nH]c(=O)c3ccccc3c2c1	0.96
CNC(=O)c1cc(Oc2ccc(NC(=O)Nc3ccc(Cl)c(C(F)(F)F)c3)c(F)c2)ccn1 [Regorafenib]	0.892
CC(C)(C)NCC(O)COc1cccc2c1CCC(=O)N2 (stereo not drawn) [Carteolol hydrochloride]	1.05
O=C(Nc1ccccc1-c1cn2c(CN3CCNCC3)csc2n1)c1cnc2ccccc2n1 [SRT1720 hydrochloride]	0.916
CCCC(CCC)C(=O)Nc1ccn([C@@H]2O[C@H](CO)[C@@H](O)C2(F)F)c(=O)n1	1.02
N#Cc1cnc(Nc2cc(NC[C@H]3CNCCO3)c(C(F)(F)F)cn2)cn1	0.997
O=C(O)c1cc(/N=N/c2ccc(O)c(C(=O)O)c2)ccc1O [Olsalazine disodium]	1
CC(=O)NCCCS(=O)(=O)O [Acamprosate calcium]	1.03
COc1ccc2c(c1OC)C(=O)O[C@@H]2[C@H]1c2c(cc3c(c2OC)OCO3)CCN1C [Noscapine hydrochloride]	1.03
CC(C)=CCc1c(O)ccc(C(=O)/C=C/c2ccc(O)cc2)c1O [Isobacachalcone]	1.01
C[C@]1(O)C[C@@H](c2nc(-c3ccc4ccc(-c5ccccc5)nc4c3)c3c(N)nccn32)C1 [Linsitinib]	0.606
C(=C\c1ccccc1)/CN1CCN(C(c2ccccc2)c2ccccc2)CC1 [Stugeron]	1.15
COc1ccc(C[C@H]2COC(=O)[C@@H]2Cc2ccc(O[C@@H]3O[C@H](CO)[C@@H](O)[C@H](O)[C@H]3O)c(OC)c2)cc1OC [Arctiin]	0.889
Oc1cc(O)c2c(c1)O[C@H](c1ccc(O)c(O)c1)[C@H](O)C2 [Epicatechin]	0.952
COC(=O)C1=CO[C@@H](O[C@@H]2O[C@H](CO)[C@@H](O)[C@H](O)[C@H]2O)[C@H]2[C@@H]1[C@H](O)C[C@]2(C)OC(C)=O [8-O-Acetylshanzhiside methyl ester]	0.897

— the supplement of paper PMC10600219
